# From patent publication US20180164324A1 (INSERM INSTITUT NATIONAL DE LA SANT ET DE LA RECHERCHE M …, published 2018)
# T1: Rho-binding domain of Rhotekin (RBD)-GFP11
# T1 chain: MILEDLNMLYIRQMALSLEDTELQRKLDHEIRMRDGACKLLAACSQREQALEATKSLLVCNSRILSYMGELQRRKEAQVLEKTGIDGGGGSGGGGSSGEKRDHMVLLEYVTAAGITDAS
# B1: GFP10-RhoB (wild-type RhoB fused to GFP10) (other)
# chain: MGDLPDDHYLSTQTILSKDLNIDGGGGSGGGGSSGAAIRKKLVVVGDGACGKTCLLIVFSKDEFPEVYVPTVFENYVADIEVDGKQVELALWDTAGQEDYDRLRPLSYPDTDVILMCFSVDSPDSLENIPEKWVPEVKHFCPNVPIILVANKKDLRSDEHVRTELARMKQEPVRTDDGRAMAVRIQAYDYLECSAKTKEGVREVFETATRAALQKRYGSQNGCINCCKVL
# Molecular target: T1, Rho-binding domain of Rhotekin …
# Assay: cell-based or functional assay
binder,measurement,value
B1,induction factor of fluorescent cells after stimulation with serum,1.6 fold
same,reduction factor of fluorescent cells upon VAV2 downregulation,2.5 fold
same,split-GFP fluorescence after serum stimulation (time-lapse),~2 fold
